According to the supplement of paper PMC4723716:
± gives the uncertainty stated by the source. Over roughly 9,900 compounds, “viability index relative to DMSO control” has its median near 1; the lowest 2% begin near 0.85. The list shows a part of the results.

Tested on: Plasmodium falciparum NF54 stage V gametocytes
Test: viability index relative to DMSO control (fraction); higher = less gametocyte killing
Settings: 2.5 µM, library set: Broad Institute DOS, incubation time: 72 h
Summary of the method: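 Compound at 2.5 µM was incubated for 72 hr at 37°C under low oxygen with P. falciparum NF54 stage V gametocytes (0.75% gametocytemia, 1.25% hematocrit, 10 µl, serum-free screening medium) in 1,536-well plates. Staining used 3 µl of 2.5 µM MitoTracker Red CMXRos plus 0.13% saponin for one to two hours, and red particles of 20–70 µm2 were counted in one imaged field per well. Each viability index is that count relative to the plate mean of solvent-only wells.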

SMILES	viability index
O=C(Nc1ccc2c(c1)[C@H]1C[C@@H](CC(=O)N3CCCCC3)O[C@H](CO)[C@H]1O2)NC1CCCCC1	1.13 ± 0.038
CCCC(=O)Nc1ccc2c(c1)C(=O)N(C)C[C@@H](OC)[C@@H](C)CN(Cc1ccc(F)cc1)[C@H](C)CO2	1.01 ± 0.034
CC(C)NC(=O)Nc1ccc2c(c1)C(=O)N(C)[C@@H]1CC[C@H](CC(=O)NCc3ccc(F)cc3)O[C@H]1CO2	1 ± 0.064
COc1ccc(S(=O)(=O)N(C)C[C@H]2Oc3ccc(NC(=O)Nc4ccc(C(F)(F)F)cc4)cc3C(=O)N([C@H](C)CO)C[C@@H]2C)cc1	1.02 ± 0.028
C[C@@H](NC(=O)C[C@@H]1CC[C@H]2[C@@H](COc3ccc(NS(=O)(=O)c4ccc(Cl)cc4)cc3C(=O)N2C)O1)c1ccccc1	1.02 ± 0.056
N#C[C@@H]1[C@@H](c2ccc(C3=CCCCC3)cc2)[C@H](CO)N1S(=O)(=O)c1ccccc1	1.12 ± 0.024
COCC(=O)N1[C@H](C#N)[C@H](c2ccccc2-c2ccccc2F)[C@@H]1CO	1.07 ± 0.013
O=C(C[C@H]1CC[C@@H]2[C@H](COC[C@@H](O)CN2C(=O)Cc2ccccc2)O1)NC1Cc2ccccc2C1	1.1 ± 0.052
O=C(NCC[C@H]1CC[C@H](NC(=O)c2ccccc2F)[C@H](CO)O1)c1cnccn1	0.94 ± 0.091
O=C(c1ccccn1)N1C[C@H]2[C@@H](c3ccccc31)[C@@H](CO)N2C(=O)Nc1ccccc1Cl	1.05 ± 0.026
C[C@H]1CCCCO[C@@H](CN(C)Cc2ccncc2)[C@@H](C)CN([C@@H](C)CO)C(=O)c2cc(NS(=O)(=O)c3ccc(Cl)cc3)ccc2O1	0.992 ± 0.046
C[C@H]1CCCCO[C@H](CN(C)C(=O)c2ccncc2)[C@@H](C)CN([C@@H](C)CO)C(=O)c2cc(NC(=O)CCC(F)(F)F)ccc2O1	1.02 ± 0.015
Cc1noc(C)c1S(=O)(=O)N(C)C[C@H]1Oc2ccc(NC(=O)c3ccncc3)cc2CC(=O)N([C@H](C)CO)C[C@H]1C	0.934 ± 0.27
Cn1cnc(S(=O)(=O)N[C@H]2CC[C@H](CC(=O)NCC3CCCCC3)O[C@H]2CO)c1	0.989 ± 0.11
O=C1N[C@H](c2ccccc2)COCc2cnnn2CC[C@@H]1Cc1ccc(C(F)(F)F)cc1	0.97 ± 0.03
CCS(=O)(=O)N1CCCCN2[C@H](CO)[C@@H](c3ccc(C#Cc4ccccn4)cc3)[C@@H]2C1	1.02 ± 0.011
CC(C)NC(=O)N(C)C[C@@H]1Oc2c(NS(=O)(=O)c3cccs3)cccc2C(=O)N([C@@H](C)CO)C[C@@H]1C	0.947 ± 0.0099
COc1ccc(CNC(=O)N(C)C[C@H]2OCc3ccccc3-c3c(n(C)c4ccccc34)C(=O)N([C@H](C)CO)C[C@@H]2C)cc1	0.93 ± 0.067
COc1ccccc1S(=O)(=O)N1C[C@@H]2N[C@H](C1)[C@H]2c1ccc(-c2cccnc2)cc1	1.1 ± 0.066
CC[C@@H]1C/C=C\C[C@@H](c2ccccc2)NC(=O)CCC(=O)N1	1.104 ± 0.0096
CNC[C@H]1OCCCC[C@H](C)Oc2ccc(NS(=O)(=O)c3ccc(F)cc3)cc2C(=O)N([C@H](C)CO)C[C@@H]1C	1.02 ± 0.045
CCCC(=O)Nc1ccc2c(c1)OC[C@@H](C)N(CC1CCOCC1)C[C@H](C)[C@H](OC)CN(C)C2=O	1.005 ± 0.0063

SMILES	viability index
Cc1ccccc1-c1ccc([C@@H]2[C@@H]3CN(C(=O)C4CCOCC4)C[C@H]2N3)cc1	1.1 ± 0.058
C[C@@H]1CN([C@H](C)CO)C(=O)CCCn2nncc2CO[C@@H]1CN(C)Cc1cccc(C(F)(F)F)c1	1.04 ± 0.039
COc1ccc2c3c([C@@H](CO)N(Cc4cc(OC)cc(OC)c4)C[C@]33CN(C3)C(=O)CN3CCOCC3)n(C)c2c1	0.879 ± 0.02
C[C@@H]1CN([C@@H](C)CO)C(=O)CCCn2nncc2CO[C@H]1CN(C)S(=O)(=O)c1ccc(Oc2ccccc2)nc1	1 ± 0.074
CCCC(=O)Nc1ccc2c(c1)C(=O)N(C)C[C@H](OC)[C@@H](C)CN(C(=O)c1ccccn1)[C@@H](C)CO2	1.02 ± 0.062
O=C(C1CCC1)N1CCCCN2[C@H](CO)[C@H](c3ccc(-c4ccncc4)cc3)[C@H]2C1	1.07 ± 0.014
C[C@@H]1CN([C@@H](C)CO)C(=O)c2cc(/C=C/c3ccccc3)cnc2O[C@H]1CN(C)S(=O)(=O)c1ccccc1F	1.04 ± 0.023
OC[C@@H]1Nc2ccc(C#Cc3ccc(F)cc3)cc2[C@H]2[C@@H]1CCN2Cc1ccc2c(c1)OCO2	1.02 ± 0.041
CN1C(=O)c2cc(NC(=O)c3cccc(C(F)(F)F)c3)ccc2OC[C@H]2O[C@H](CC(=O)NCCN3CCCC3)CC[C@H]21	0.976 ± 0.093
C/C=C/c1ccc([C@H]2[C@H](CO)N(S(=O)(=O)Cc3ccccc3)C23CN(C(=O)C2CCCC2)C3)cc1	1.08 ± 0.037
CN1CCN(C(=O)c2cc3c(c(-c4cccc(-c5cccnc5)c4)n2)[C@@H](CCO)N(C(=O)CC2CC2)C3)CC1	1.03 ± 0.14
O=C(C[C@@H]1C[C@@H]2c3cc(NC(=O)c4ccc5c(c4)OCO5)ccc3O[C@@H]2[C@H](CO)O1)NCCN1CCCCC1	1.09 ± 0.04
Fc1ccccc1-c1ccc([C@@H]2[C@@H]3CN(Cc4ccccn4)C[C@H]2N3)cc1	0.929 ± 0.062
Cc1ccc(S(=O)(=O)Nc2ccc3c(c2)C(=O)N([C@H](C)CO)C[C@@H](C)[C@H](CN(C)Cc2ccc(C(F)(F)F)cc2)O3)cc1	1.03 ± 0.044
CN(C)CC(=O)N1[C@H](CO)[C@H](c2ccccc2)C12CN(CCC(F)(F)F)C2	1.02 ± 0.013
COc1ccccc1-c1ccc([C@@H]2[C@H]3CN(C(=O)c4cccnc4)CCCCN3[C@H]2CO)cc1	0.9804 ± 0.0045
C/C=C/c1ccc2n(c1=O)C[C@@H]1[C@@H](CO)[C@H](C(=O)N[C@H](C)c3ccccc3)N(C(=O)c3ccccn3)[C@H]21.C/C=C\c1ccc2n(c1=O)C[C@@H]1[C@@H](CO)[C@H](C(=O)N[C@H](C)c3ccccc3)N(C(=O)c3ccccn3)[C@H]21	1.04 ± 0.021
Cn1cnc(S(=O)(=O)N2C[C@@H](O)COC[C@H]3O[C@@H](CC(=O)NCc4cccc(F)c4)CC[C@@H]32)c1	1.02 ± 0.049
O=C(NC1CCCCC1)N1CC2(C1)[C@H](c1ccccc1)[C@H](CO)N2CC1CCCC1	1.1 ± 0.13
C[C@@H]1CN([C@@H](C)CO)C(=O)c2cc(NC(=O)Nc3ccccc3)ccc2O[C@@H]1CN(C)Cc1ccccc1	1.06 ± 0.11
C[C@H]1CCCCO[C@@H](CN(C)CC2CCCCC2)[C@@H](C)CN([C@@H](C)CO)C(=O)c2cc(NS(C)(=O)=O)ccc2O1	1.076 ± 0.0073
